{"source": "the supplement of paper PMC8728848", "binders": {"B1": {"name": "SP16664B-bot-474-25-474 (Bacteroides ovatus) (protein)", "chain": "CEEDIEIGNKIDESSYLASTQLSGLLLDENTNKNSSVIELRNNEYSTNVVFRLSKLPQKGVDVQIAVEESYAAIYNTIHETDFEVFPAANVKIANNGTFVLAPDDKVTPSVKVTLTAFDGMEEDKTYIVPLTVTSSTEGVTFTETSKHMVLLVQDYRNKPNTNKGEDAVQTVLYFEVNDTNPLNALEFLTESGKYFFDHIVLFAANINWDPEKQRVYLANNENVQFLLDNNDKYLQPLRKAGMKIIISILGNHDEAGVAQLSDMGAREFARELAAYCRAYNLDGVAFDDEYSNSPDLSNPWLASPSAYAGSRLMYECKAVMPEKIVSLYNLGNMYSSSLQVIDGIEPGQYCDYAVADYGGAAGPGTGMTLKQCAGMSIELRRGSGNSSESTARSRKEAGYGYYMFFALDPSLYGSQVYRCQSVCKGLYDETLVYPSYYYKKNSTEREAIN"}}, "assay_in_all_cases": "glycan array binding signal (z-score within array); higher = stronger binding", "conditions_in_all_cases": "glycan notation: IUPAC condensed, linker removed", "key": {"[1]": {"biological_target": "Fuc(a1-2)Gal(b1-4)GlcNAc(b1-3)Gal(b1-4)GlcNAc(b1-2)Man(a1-3)[Fuc(a1-2)Gal(b1-4)GlcNAc(b1-3)Gal(b1-4)GlcNAc(b1-2)Man(a1-6)]Man(b1-4)GlcNAc(b1-4)GlcNAc", "outline": "(§1)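 The Consortium for Functional Glycomics database supplied 3228 glycan arrays, of which those lacking an available protein sequence were dropped. The binding signal, a within-array Z-score, was averaged across arrays of the same protein sequence and across linkers. Negative scores can be read as non-binding.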"}, "[2]": {"biological_target": "Fuc(a1-2)Gal(b1-4)GlcNAc(b1-3)Gal(b1-4)GlcNAc(b1-3)Gal(b1-4)GlcNAc", "outline": "as §1"}, "[3]": {"biological_target": "Fuc(a1-2)Gal(b1-4)GlcNAc(b1-3)GalNAc", "outline": "as §1"}, "[4]": {"biological_target": "Fuc(a1-2)Gal(b1-4)GlcNAc(b1-3)[Fuc(a1-2)Gal(b1-4)GlcNAc(b1-6)]GalNAc", "outline": "as §1"}, "[5]": {"biological_target": "Fuc(a1-2)Gal(b1-4)GlcNAc(b1-3)[Fuc(a1-3)[Gal(b1-4)]GlcNAc(b1-6)]Gal(b1-4)Glc", "outline": "as §1"}, "[6]": {"biological_target": "Fuc(a1-2)Gal(b1-4)GlcNAc(b1-6)GalNAc", "outline": "as §1"}, "[7]": {"biological_target": "Fuc(a1-2)Gal(b1-4)GlcNAc6S", "outline": "as §1"}, "[8]": {"biological_target": "Fuc(a1-2)Gal(b1-4)[Fuc(a1-3)]GlcNAc", "outline": "as §1"}, "[9]": {"biological_target": "Fuc(a1-2)Gal(b1-4)[Fuc(a1-3)]GlcNAc(b1-2)Man(a1-3)[Fuc(a1-2)Gal(b1-4)[Fuc(a1-3)]GlcNAc(b1-2)Man(a1-6)]Man(b1-4)GlcNAc(b1-4)[Fuc(a1-6)]GlcNAc", "outline": "as §1"}, "[10]": {"biological_target": "Fuc(a1-2)Gal(b1-4)[Fuc(a1-3)]GlcNAc(b1-2)[Fuc(a1-2)Gal(b1-4)[Fuc(a1-3)]GlcNAc(b1-4)]Man(a1-3)[Fuc(a1-2)Gal(b1-4)[Fuc(a1-3)]GlcNAc(b1-2)Man(a1-6)]Man(b1-4)GlcNAc(b1-4)GlcNAc", "outline": "as §1"}, "[11]": {"biological_target": "Fuc(a1-2)Gal(b1-4)[Fuc(a1-3)]GlcNAc(b1-3)Gal(b1-4)[Fuc(a1-3)]GlcNAc", "outline": "as §1"}, "[12]": {"biological_target": "Fuc(a1-2)Gal(b1-4)[Fuc(a1-3)]GlcNAc(b1-3)Gal(b1-4)[Fuc(a1-3)]GlcNAc(b1-3)Gal(b1-4)[Fuc(a1-3)]GlcNAc", "outline": "as §1"}, "[13]": {"biological_target": "Fuc(a1-2)Gal(b1-4)[Fuc(a1-3)]GlcNAc(b1-3)GalNAc", "outline": "as §1"}, "[14]": {"biological_target": "Fuc(a1-2)Gal(b1-4)[Fuc(a1-3)]GlcNAc(b1-3)[Neu5Ac(a2-6)Gal(b1-4)GlcNAc(b1-6)]Gal(b1-4)Glc", "outline": "as §1"}, "[15]": {"biological_target": "Fuc(a1-2)Gal3S(b1-4)GlcNAc", "outline": "as §1"}, "[16]": {"biological_target": "Fuc(a1-2)Gal6S(b1-3)GlcNAc", "outline": "as §1"}, "[17]": {"biological_target": "Fuc(a1-2)Gal6S(b1-3)GlcNAc6S", "outline": "as §1"}, "Fuc(a1-2)Gal6S(b1-4)Glc": {"biological_target": "Fuc(a1-2)Gal6S(b1-4)Glc", "outline": "as §1"}, "[18]": {"biological_target": "Fuc(a1-2)Gal6S(b1-4)Glc6S", "outline": "as §1"}, "Fuc(a1-2)[Gal(a1-3)]Gal": {"biological_target": "Fuc(a1-2)[Gal(a1-3)]Gal", "outline": "as §1"}, "[19]": {"biological_target": "Fuc(a1-2)[Gal(a1-3)]Gal(b1-3)GalNAc", "outline": "as §1"}, "[20]": {"biological_target": "Fuc(a1-2)[Gal(a1-3)]Gal(b1-3)GalNAc(b1-3)Gal(a1-4)Gal(b1-4)Glc", "outline": "as §1"}, "[21]": {"biological_target": "Fuc(a1-2)[Gal(a1-3)]Gal(b1-3)GlcNAc", "outline": "as §1"}, "[22]": {"biological_target": "Fuc(a1-2)[Gal(a1-3)]Gal(b1-3)GlcNAc(b1-2)Man(a1-3)[Fuc(a1-2)[Gal(a1-3)]Gal(b1-3)GlcNAc(b1-2)Man(a1-6)]Man(b1-4)GlcNAc(b1-4)GlcNAc", "outline": "as §1"}, "[23]": {"biological_target": "Fuc(a1-2)[Gal(a1-3)]Gal(b1-3)GlcNAc(b1-2)Man(a1-3)[Fuc(a1-2)[Gal(a1-3)]Gal(b1-3)GlcNAc(b1-2)Man(a1-6)]Man(b1-4)GlcNAc(b1-4)[Fuc(a1-6)]GlcNAc", "outline": "as §1"}, "[24]": {"biological_target": "Fuc(a1-2)[Gal(a1-3)]Gal(b1-3)GlcNAc(b1-3)GalNAc", "outline": "as §1"}, "[25]": {"biological_target": "Fuc(a1-2)[Gal(a1-3)]Gal(b1-3)GlcNAc(b1-6)GalNAc", "outline": "as §1"}, "[26]": {"biological_target": "Fuc(a1-2)[Gal(a1-3)]Gal(b1-4)Glc", "outline": "as §1"}, "[27]": {"biological_target": "Fuc(a1-2)[Gal(a1-3)]Gal(b1-4)GlcNAc", "outline": "as §1"}, "[28]": {"biological_target": "Fuc(a1-2)[Gal(a1-3)]Gal(b1-4)GlcNAc(b1-2)Man", "outline": "as §1"}}, "note": "The other results are listed elsewhere or left out."}
{"binder": "B1", "values": [{"measurement": "glycan array binding signal (z-score)", "setting": "[1]", "value": 0.089}, {"measurement": "glycan array binding signal (z-score)", "setting": "[2]", "value": -0.192}, {"measurement": "glycan array binding signal (z-score)", "setting": "[3]", "value": -0.014}, {"measurement": "glycan array binding signal (z-score)", "setting": "[4]", "value": -0.207}, {"measurement": "glycan array binding signal (z-score)", "setting": "[5]", "value": -0.136}, {"measurement": "glycan array binding signal (z-score)", "setting": "[6]", "value": -0.159}, {"measurement": "glycan array binding signal (z-score)", "setting": "[7]", "value": -0.261}, {"measurement": "glycan array binding signal (z-score)", "setting": "[8]", "value": -0.434}, {"measurement": "glycan array binding signal (z-score)", "setting": "[9]", "value": 0.4}, {"measurement": "glycan array binding signal (z-score)", "setting": "[10]", "value": 0.183}, {"measurement": "glycan array binding signal (z-score)", "setting": "[11]", "value": -0.262}, {"measurement": "glycan array binding signal (z-score)", "setting": "[12]", "value": -0.263}, {"measurement": "glycan array binding signal (z-score)", "setting": "[13]", "value": 1.15}, {"measurement": "glycan array binding signal (z-score)", "setting": "[14]", "value": -0.349}, {"measurement": "glycan array binding signal (z-score)", "setting": "[15]", "value": -0.472}, {"measurement": "glycan array binding signal (z-score)", "setting": "[16]", "value": 0.097}, {"measurement": "glycan array binding signal (z-score)", "setting": "[17]", "value": 0.246}, {"measurement": "glycan array binding signal (z-score)", "setting": "Fuc(a1-2)Gal6S(b1-4)Glc", "value": 0.171}, {"measurement": "glycan array binding signal (z-score)", "setting": "[18]", "value": 0.157}, {"measurement": "glycan array binding signal (z-score)", "setting": "Fuc(a1-2)[Gal(a1-3)]Gal", "value": -0.295}, {"measurement": "glycan array binding signal (z-score)", "setting": "[19]", "value": 0.022}, {"measurement": "glycan array binding signal (z-score)", "setting": "[20]", "value": -0.407}, {"measurement": "glycan array binding signal (z-score)", "setting": "[21]", "value": -0.131}, {"measurement": "glycan array binding signal (z-score)", "setting": "[22]", "value": -0.111}, {"measurement": "glycan array binding signal (z-score)", "setting": "[23]", "value": 0.332}, {"measurement": "glycan array binding signal (z-score)", "setting": "[24]", "value": -0.535}, {"measurement": "glycan array binding signal (z-score)", "setting": "[25]", "value": -0.401}, {"measurement": "glycan array binding signal (z-score)", "setting": "[26]", "value": -0.093}, {"measurement": "glycan array binding signal (z-score)", "setting": "[27]", "value": -0.507}, {"measurement": "glycan array binding signal (z-score)", "setting": "[28]", "value": -0.29}]}
